The text below walks through data of ChEMBL document CHEMBL4888484, “Replenishing the malaria drug discovery pipeline: Screening and hit evaluation of the MMV Hit Generation Library 1 (HGL1) against asexual blood stage Plasmodium falciparum ,using a nano luciferase reporter read-out” (2022).

Each structure is given as a SMILES string. Screen size: about 150,000 compounds; about 540 (0.36%) showed an effect of 50% or more. The list shows a part of the results.

This experiment has as its system Plasmodium falciparum. As to the kind of experiment: Primary screen in NF54 nanoGlo assay, in single point, at 2uM, 72h; a lower Z score goes with more inhibition. Format: functional, Erythrocyte. The conditions noted are these: timepoint 72 hour.
With `COc1ccc(CCNC(=O)c2ccc(N3C(=O)N4CCc5c([nH]c6ccccc56)[C@@]4(C)C3=O)cc2)cc1`, the “% Inhibition” value was determined as 2% and the Z score is given as -0.46.
Taken in the same sequence, the figures for `CC(C)C(=O)Nc1ccc(-n2cnc(C(=O)N3CCCCCC3)c2)nc1` were -11% and 1.77.
The like results for `COCc1ncc2c(n1)CCN(C[C@H](C)c1ccc(OC)cc1)C2` were, in that order, -1% and 0.19.
Taken in the same sequence, the figures for `CC(C)(O)Cn1nc(COc2cccc(F)c2)nc1[C@]1(C)CCCO1` were -10% and 1.88.
`O=C1CCCCCN1C(=O)c1ccccc1F`: the “% Inhibition” value is given as -13% and the Z score was determined as 2.26.
Taken in the same sequence, the figures for `C=CCN1CCC[C@H]1C(=O)NC1(Cc2ccccc2C)CC1` were -2% and 0.31.
Turning to `O=C(COc1ccccc1)NCc1nc([C@H]2CC(=O)N(Cc3ccccc3)C2)no1`, the “% Inhibition” value is recorded as 1% and the Z score is on record as -0.08.
The like results for `COC[C@@H]1CN(C(=O)c2nccc3ccccc23)C[C@H]1c1nc(C)no1` were, in that order, -9% and 1.57.
`COc1ccc(NC(=O)[C@H](C)n2nc(-c3ccccc3)c3c(c2=O)CCCC3)cc1`: the “% Inhibition” value was -7% and the Z score amounted to 1.
As to `Clc1ccc([C@@H](Nc2ccc3nnnn3n2)c2ccsc2)cc1`, the “% Inhibition” value is given as -2% and the Z score is listed as 0.24.
Taken in the same sequence, the figures for `N#Cc1nccnc1N1CCc2ccc(O)cc2C1` were 7% and -1.01.
Taken in the same sequence, the figures for `CCN(C[C@H]1CCCCO1)S(=O)(=O)Cc1ccc(Cl)cc1` were -4% and 0.54.
Taken in the same sequence, the figures for `CCc1[nH]c(=O)sc1S(=O)(=O)NCC1(CC)CC1` were -9% and 0.97.
For the compound `Oc1ccccc1C1=Nc2ccccc2C(c2ccccc2)(c2ccccc2)O1`, the “% Inhibition” value was found to be 27% and the Z score is -3.1.
The like results for `Cc1c(C(=O)N2CCCC[C@H]2c2ncon2)ccn1C` were, in that order, -42% and 4.94.
For the compound `Cc1cc(C)c(C(=O)NCCN2C(=O)COC2=O)c(C)c1`, the “% Inhibition” value stood at 1% and the Z score is reported as -0.22.
On to `Cc1nc(C)c(C)c(NCC2(S(N)(=O)=O)CCC2)n1`, for which the “% Inhibition” value was 2% and the Z score is reported as -0.47.
The like results for `Cc1cc(Cn2c(=O)n(Cc3ccccc3)c3ccncc32)on1` were, in that order, 30% and -0.64.
Taken in the same sequence, the figures for `Cc1cc(CS(=O)(=O)Nc2ccc(F)cn2)no1` were 0% and 0.
Taken in the same sequence, the figures for `CC1(C)CCc2nnc(-c3ccccc3)n2C1` were 7% and -0.91.
With `COCC[C@H](C)N1CCC2(CC1)CN(CCc1ccccc1)C(=O)O2`, the “% Inhibition” value came out at 11% and the Z score is -1.65.
Consider `CC1CN(Cc2ccccn2)CCC1Nc1ccc(OC(F)F)cn1` (stereo not drawn), for which the “% Inhibition” value is -4% and the Z score is listed as 0.34.
On to `Cc1cc(C(=O)Nc2ccc(N3CCNC(=O)C3)nc2)c(C)n1Cc1ccccn1`, for which the “% Inhibition” value was -14% and the Z score is 2.64.
Taken in the same sequence, the figures for `COc1ccnc(CN2C[C@H](C)[C@@](O)(C3CC3)C2)c1` were -15% and 2.25.
`CC(C)OC[C@@H](O)CN1CCCCC1`: the “% Inhibition” value was -4% and the Z score came to 0.56.
The like results for `CC1CCN(S(=O)(=O)[C@H]2CCS(=O)(=O)C2)CC1` were, in that order, -12% and 1.39.
For the compound `C#Cc1cccc(NC(=O)C(=O)NCc2nc(-c3ccco3)n[nH]2)c1`, the “% Inhibition” value is reported as -7% and the Z score is recorded as 0.85.
The like results for `CCCc1ccc(OCc2ccc(C(=O)n3cc(Cl)cn3)o2)cc1` were, in that order, -1% and 0.14.
The like results for `C#Cc1cc(F)c(NC(=O)N[C@@H](C)Cc2c(C)noc2C)c(F)c1` were, in that order, 0% and -0.02.
The like results for `Cc1ccc(F)cc1NC(=O)Cn1cnc2nc(N3CCOCC3)sc2c1=O` were, in that order, -2% and 0.29.
On to `COCCC1(CNC(=O)N[C@@H]2CC=CCC2)CCC1`, for which the “% Inhibition” value amounted to 1% and the Z score was -0.13.
Taken in the same sequence, the figures for `CC(C)n1ncc2cc(CN3[C@@H]4C[C@H]5CC[C@]4(CS3(=O)=O)C5(C)C)cnc21` were -7% and 0.59.
Taken in the same sequence, the figures for `O=C(NC[C@H]1CCOC1)c1cccc(-c2c[nH]c(C(=O)N3CCOCC3)c2)c1` were -3% and 0.51.
Consider `CCCS(=O)(=O)c1c(S(=O)(=O)CCC)c2c3ccccc3ccn2c1C(=O)c1ccc(F)cc1`, for which the “% Inhibition” value was -1% and the Z score amounted to 0.09.
The like results for `COCCN(CCS(=O)(=O)c1ccccc1)C1CCCC1` were, in that order, -22% and 3.
The like results for `CC1(C)CC(=O)N(CCCO[C@@H]2CCCCO2)C1=O` were, in that order, -10% and 1.25.
Taken in the same sequence, the figures for `CCOC(=O)Nc1cc(NC(=O)OCC)c(N2CCCC2=O)cc1C` were -1% and 0.07.
As for `CCS(=O)(=O)NCC(=O)NCc1cc2c(s1)CCCCC2`, the “% Inhibition” value worked out at 5% and the Z score is given as -0.58.
The like results for `O=C(c1cc(-c2cccnc2)nc2ccccc12)N1CCN(c2ccccc2)CC1` were, in that order, -7% and 1.33.
The like results for `O=C(c1ccc2c(c1)OCCO2)N1CCN(c2ncccn2)CC1` were, in that order, -15% and 2.87.
Taken in the same sequence, the figures for `Cc1ccc(C(=O)OCC(=O)NC(=O)Nc2ccccc2F)cn1` were -9% and 1.72.
For `COc1ccccc1-n1cnc2cc(C(=O)N3CCCC3)ccc2c1=O`, the “% Inhibition” value is on record as 36% and the Z score is reported as -4.04.
The like results for `COCCOCC(=O)N1CC(Oc2ccccc2-c2nc(C3CC3)no2)C1` were, in that order, 0% and 0.04.
The like results for `NC(=O)C1CCN(C(=O)c2nc[nH]c2C(=O)NCc2ccccc2)CC1` were, in that order, -1% and 0.13.
The like results for `CC[C@@]1(C)CN(C(=O)Nc2ccc(C)c(-c3ncco3)c2)CCO1` were, in that order, -1% and 0.05.
Regarding `Cc1nc(N(C)C)nc(-c2cccc(C(=O)NCc3n[nH]c(=O)[nH]3)c2)c1C`, the “% Inhibition” value is recorded as 7% and the Z score is -0.85.
Regarding `Cc1ccnc(N2CCC[C@H]2c2noc(C)n2)n1`, the “% Inhibition” value was -1% and the Z score is 0.08.
The like results for `C=CCn1c(=O)c2ccccc2n(CC(=O)NC2CCCCC2)c1=O` were, in that order, 31% and -3.55.
Taken in the same sequence, the figures for `O=C1CCN(Cc2ccc(C(F)(F)F)cc2)CCC[C@H](C(=O)N2CCN(c3ccccn3)CC2)CCN1` were -17% and 2.14.
Regarding `COc1ccc2[nH]c(CN3CCN(c4cc(O)nc(N)n4)CC3)c(C)c2c1`, the “% Inhibition” value is -5% and the Z score was 0.9.
The like results for `Cc1[nH]ccc1C(=O)Nc1ccccc1-c1cc(F)c(F)c(F)c1` were, in that order, 1% and -0.17.
As for `O=C(c1cc2ccc(Cl)cc2[nH]1)N1CC(O)CC1c1cccc(F)c1` (stereo not drawn), the “% Inhibition” value is recorded as -9% and the Z score was determined as 0.89.
The like results for `Cc1ccc(C(=O)N2CCC(Cc3ccc(CN4CCCCC4)cc3)CC2)cn1` were, in that order, -5% and 0.97.
Take `CCOc1ncccc1CNC(=O)c1ccc([C@H](C)N2CCCCC2)o1`: the “% Inhibition” value is recorded as -12% and the Z score is listed as 1.12.
The like results for `CC(Cn1cccn1)NC(c1ccc(Cl)cc1)C1CN(C)CCO1` (stereo not drawn) were, in that order, -3% and 0.3.
`Cc1cc2sc(NC(=O)N3CCC(C(C)O)C3)nc2s1` (stereo not drawn): the “% Inhibition” value is -13% and the Z score is given as 1.58.
The like results for `COc1ccccc1NC(=O)[C@H]1Nc2cc(C(F)(F)F)ccc2S(=O)(=O)N1` were, in that order, -6% and 1.05.
Taken in the same sequence, the figures for `O=C(CCn1nc2ccccn2c1=O)NCCCc1nccs1` were -2% and 0.21.
Taken in the same sequence, the figures for `COc1ccc(-c2nc(-c3ccc(Cl)cc3)c(NC(=O)c3ccccc3)s2)cc1OC` were -1% and 0.19.
For the compound `Cn1nnc2c1C[C@@H](NC(=O)C(C)(C)N1CCOCC1)CC2`, the “% Inhibition” value is -9% and the Z score was 1.19.
The like results for `CCN(Cc1nc2cc(Cl)ccc2c(=O)[nH]1)C(=O)Cc1ccccc1C` were, in that order, -13% and 2.42.
Consider `CCOCC(=O)Nc1cc(C)nn1[C@H]1CCN(Cc2ccccc2)C1`, for which the “% Inhibition” value was -5% and the Z score worked out at 0.75.
Turning to `CC[C@@](C)(CCO)NCc1cccn1C`, the “% Inhibition” value was found to be 2% and the Z score is given as -0.34.
The like results for `CCc1cc(-c2c(C#N)c(N)nc3c2COCC3)[nH]n1` were, in that order, 1% and -0.18.
Taken in the same sequence, the figures for `CCOCCOc1nc(-c2cccc(OC)c2)n(-c2ccc(NC(=O)Nc3cccc(OC)c3)cc2)n1` were 6% and -0.67.
Taken in the same sequence, the figures for `O=C(CN1CCC(O)(c2cccc3cnccc23)CC1)NCC1CC1` were -2% and 0.33.
For `CC1CN(C(=O)Cc2noc(C=CC3(C)CCOCC3)n2)CC(C)O1` (stereo not drawn), the “% Inhibition” value was -9% and the Z score is reported as 1.92.
Taken in the same sequence, the figures for `CN1CCN([C@H]2CCN(c3ccc4ccccc4n3)C2)CC1` were 1% and -0.18.
The like results for `CN(CC#CCNC(=O)Cc1ccc(F)cc1)Cc1ccccc1` were, in that order, -2% and 0.19.
`Cc1noc(C)c1C(=O)Nc1ncnn1C(C)(C)C`: the “% Inhibition” value was -12% and the Z score was found to be 2.22.
Taken in the same sequence, the figures for `COc1nc2c(c(C)nn2-c2ccc(C)cc2)c(C)c1CCC(=O)NCc1cccc(Cl)c1` were -8% and 1.13.
On to `CC(=O)Nc1c(C)noc1/C=C\c1ccc(S(=O)(=O)Nc2ccc(C)c(C)c2)cc1`, for which the “% Inhibition” value is -6% and the Z score is 0.92.
The like results for `CCC(=O)N1CCC(C(NC(=O)c2ccc(OC)cc2)C(=O)NC(C)C(C)C)CC1` (stereo not drawn) were, in that order, -3% and 0.47.
The like results for `C[C@H](C(=O)N(Cc1ccncc1)C1CC1)c1ccccc1` were, in that order, 11% and -1.32.
Taken in the same sequence, the figures for `COc1cccc(C(=O)N(Cc2c(-c3cccc(C)c3)noc2N2CCOCC2)C2CC2)c1` were 27% and -3.65.
In the case of `O=C1NCCc2cc(OCc3noc(-c4cccs4)n3)ccc21`, the “% Inhibition” value is reported as -13% and the Z score was determined as 1.67.
`O=C(O)C[C@@H]1CCN(C(=O)COc2ccccc2)C[C@@H]1Cc1nc2ccccc2[nH]1`: the “% Inhibition” value is 10% and the Z score is -1.55.
On to `CCN(CC)C(=O)Cn1ncn2nc(-c3cccc4ccccc34)cc2c1=O`, for which the “% Inhibition” value is given as -10% and the Z score is reported as 1.33.
The like results for `O=C(c1csc2ccccc12)N1CCCCCCC1` were, in that order, -11% and 1.52.
Taken in the same sequence, the figures for `CCn1nccc1C(=O)N1CCc2c(c(NC(=O)c3ccccc3)nn2C)C1` were 4% and -0.35.
Taken in the same sequence, the figures for `CCN(C)c1ccccc1CNC(=O)N[C@@H](C)c1ncc(C)s1` were -6% and 0.81.
`CC[C@H](C)N(Cc1ccc(OS(=O)(=O)C(C)C)cc1)C(=O)C(C)C`: the “% Inhibition” value is listed as -9% and the Z score stood at 1.32.
Taken in the same sequence, the figures for `COc1cc2c(cc1CN(C)Cc1cc(C3CC3)[nH]n1)OCCCO2` were -12% and 2.35.
Taken in the same sequence, the figures for `Cc1ocnc1CNC(=O)N1CCC[C@H]1COc1ccc(F)cc1` were -9% and 1.6.
